# Assay results: the supplement of paper PMC11417369
# ± gives the standard deviation of the averaged measurements. Some of the results follow.
# System: PfAP2-I AP2 domain 3 (GST-tagged)
# Experiment: gcPBM binding intensity (ln(normalized median fluorescence intensity)); higher = stronger DNA binding
# Summary of the method: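 GST-tagged P. falciparum DNA-binding domains produced in E. coli were incubated for 1 h on an Agilent 4 × 180k array of primer-extended double-stranded 36-bp intergenic genomic probes with negative controls. Binding intensity is the highest Masliner-normalised natural-log median intensity across replicate spots of either probe orientation, with bound protein detected by Alexa488 anti-GST antibody at 488 nm.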
row,Sequence,gcPBM binding intensity (ln)
1,TTAACATAAATATATACACACCAATGATGGCATTTA [CACACA_site4952],7.51 ± 0.52
2,TATATATAATATATATGTACGTATATATATAATATA [XGTACX_site8383],7.75 ± 0.14
3,TTTATTTTCCAAAGGGTGCACATAGTTGAAACGATA,11.1 ± 0.44
4,AATAAAGCAATAAATACACACATATTTATATTTATA [CACACA_site7390],7.86 ± 0.37
5,GTATACATGCAAATTTTTATTTACAACCCCAAAAAG [XGTACX_negctrl_site255],8.39 ± 0.5
6,TTTTCATAATATACATGTACATATATAAATTATTAA [XGTACX_site5206],7.71 ± 0.37
7,TATTATAATATGCCTTGTACATATAACAAATTTATT [XGTACX_site108],7.72 ± 0.43
8,TTTTTTTCACAAAATACACACAATATATTTTATATC [CACACA_site1138],7.79 ± 0.61
9,TTTATTTATTACTAAAGTACTAAATCATATTATTAT [XGTACX_site2574],7.38 ± 0.4
10,ATGAACAAGTGGCACACACACATTATAACTAATTTA [CACACA_site5731],8.5 ± 0.45
11,TTCTTTTTTTTTATCACACATATTACAATCTAGTGC [CACACA_site4697],8.26 ± 0.57
12,AAAATAATATTTCCTTGTACACATATGTATTTGTTC [XGTACX_site4430],8.09 ± 0.54
13,AAAAGTCTTCAAATTTGTACATATATATATATATAT [XGTACX_site3404],9.47 ± 0.53
14,GGTACATACAGACACACACACAAAAAAAAAAAAATA [CACACA_site6844],7.79 ± 0.19
15,TTAATATTAATTATATGTACATATAATATATATATA [XGTACX_site1757],8.69 ± 0.014
16,ATCTTTTCATATTGCTGTACAAATTATTTTCATTCG [XGTACX_site492],8.33 ± 0.72
17,ATGTTAAACAAATCTATACACACGTATATGACAAAA [CACACA_site1783],7.83 ± 0.64
18,GAGAAATGGAGACACACACACATATTATATATATAT [CACACA_site1532],9.105 ± 0.049
19,TGTATAAAATTCCATTGTACATATTATTTTACGACA [XGTACX_site7764],7.62 ± 0.5
20,CGAACACAAACACAAACACACATCATATATATATAT [CACACA_site4857],9.3 ± 0.36
21,ATTTTGGAAATAATATGTACATATACATAATATATA [XGTACX_site4177],7.53 ± 0.32
22,AATATACAAAAAAAAAAAAAAAAAAAAAAGATGGAA [TGCATGCA_negctrl_site550],7.5 ± 0.57
23,ATAAAAAAAAAAAGAAGTACATGTATTAAAATTTAT [XGTACX_site3927],7.85 ± 0.51
24,TGAATTTACAAAATCATGCACTTAATTACAGAATAA,8.7 ± 0.45
25,GCAAATCTTATATGAAGTACATATCTTATAAATAAA [XGTACX_site6903],7.72 ± 0.42
